Data as given in PubChem BioAssay AID1347073 (National Center for Advancing Translational Sciences (NCATS), 2019).
Among all 45,000 compounds or so, about 200 (0.44%) were called active. About 7% were inconclusive and are not listed. Calls follow the shape of the dose curve; as a rule, active = well fitted activation curve with a large enough effect; inconclusive = small, poorly fitted or top-dose-only effect; inactive = no such curve, though single readings can be large or run the other way. The list shows a part of the results.

Assay: qHTS of TDP-43 Inhibitors: NCGC Sytravon Library Screen; also: nearly all actives have a fitted effect of over 55% in size; as to growth rescue (activation): 0% is about no effect
Settings: yeast TDP-43 toxicity rescue, BacTiter-Glo growth, 24 h; series mostly up to 46.1 µM; growth rescue (activation): at the top concentration
Outline: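 TDP-43-expressing yeast, pregrown in raffinose, seeded at OD600 0.02 in galactose medium with compound for 24 hr at 30 deg C. Growth read by BacTiter-Glo luminescence, so rescue of toxicity appears as activation.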
Potency is read from the fitted curve at half-maximal effect.

Structure (SMILES) | Potency | growth rescue (activation)
CN(Cc1ccccc1)c1oc(-c2ccco2)nc1C#N | active: 14.1 µM | –
CCOc1ccc(C(=O)C(C)=O)c(OCC)c1 | – | inactive: 3.43%
CCCC(=O)N1CCC1(C)C(=O)Nc1ccc(C)c(C)c1 (stereo unspecified) | – | inactive: 1.07%
CCN1CCN(Cc2nc3ccc([N+](=O)[O-])cc3c(=O)n2-c2ccc(OC)cc2OC)CC1 | – | inactive: 8.94%
O=C(COC(=O)c1ccc(Br)c(S(=O)(=O)N2CCOCC2)c1)NCCc1ccccc1 | – | inactive: -2.58%
Cc1cc(C(=O)COc2ccccc2[N+](=O)[O-])c(C)n1C1CC1 | – | inactive: 14.4%
COc1cc(NC(=O)c2ccccc2Cl)c(OC)cc1NC(=O)CN1CCCCC1 | – | inactive: 16%
O=C(COC(=O)Cc1ccccc1)NCc1ccc2c(c1)OCO2 | – | inactive: 16.9%
CCOC(=O)c1nc2ccccc2s1 | – | inactive: 4.78%
CC(NCc1ccc([N+](=O)[O-])cc1)C1COc2ccccc2O1 (stereo unspecified) | – | inactive: -8.78%
CC/C(=C/c1sc2ccc(C)cc2[n+]1CCO)SC | – | inactive: 2.36%
Cc1ccc(C)n1-c1nnc(N2CCCC(C(=O)NCc3ccc(Cl)cc3)C2)s1 (stereo unspecified) | – | inactive: 8.02%
O=C(NCc1cn2ccsc2n1)Nc1cccc(Cl)c1 | – | inactive: -23%
CN(C)C(=O)c1cc(-c2ccccc2)no1 | – | inactive: 18.3%
N#Cc1ccccc1OCCCNC1CCCC1 | – | inactive: -8.5%
O=C(CSc1nnc(Nc2ccccc2)s1)NCc1cccs1 | – | inactive: 3.4%
Cc1ccc(C(=O)C[n+]2ccccc2C)cc1[N+](=O)[O-] | – | inactive: 4.88%
C/C(CC(=O)N1CCN(C=O)CC1)=N\NC(=O)c1ccc(Br)cc1 | – | inactive: -9.66%
CC1(Oc2cccc(F)c2)CCN(Cc2ccc(-c3ccccn3)cc2)C1 (stereo unspecified) | – | inactive: -4.49%
CC1=CC(C)(C)Nc2ccc(OC(=O)CCN3C(=O)c4ccccc4C3=O)cc21 | – | inactive: 20.1%
CC(=O)N1CCN(C(=O)CCc2nnc(CCCCc3ccccc3)o2)CC1 | – | inactive: 5.98%
O=C(Nc1cccs1)Nc1cc(C(F)(F)F)ccc1Cl | – | inactive: 24.4%

Structure (SMILES) | Potency | growth rescue (activation)
CCn1nc(NC(=O)CC(C)C)c2cc3cccc(C)c3nc21 | – | inactive: -4.54%
Cc1cc(C)cc(NC(=S)N2CCC(NC(=O)c3ccco3)CC2)c1 | – | inactive: -6.34%
COC(=O)c1cccc(NC(=O)/C=C/c2ccc3c(c2)OCO3)c1 | – | inactive: 27.5%
CCOc1ccc(CCNC(=O)CCc2c(C)nc3c4c(C)cc(C)nc4nn3c2C)cc1 | – | inactive: -9.56%
CCOC(=O)C1CCN(CCC(=O)Nc2cc(C)ccc2C)CC1 | – | inactive: 2.89%
CC1CN(S(=O)(=O)c2cccc(C(=O)N3CCC(C(N)=O)CC3)c2)CC(C)O1 (stereo unspecified) | – | inactive: 13.4%
COc1ccc(-c2[nH]ncc2CN2CCC(OCc3cccnc3)CC2)c(F)c1 | – | inactive: -15.1%
Cc1ccc(S(=O)(=O)N(C)/N=C2/C(=O)N(CC(=O)O)c3ccccc32)cc1 | – | inactive: 8.96%
C/C(=N/Nc1ccc(C(=O)O)cc1)c1ccc(O)c(O)c1O | – | inactive: 14.5%
O=C(CCN1CCCO1)N1CCCC(N2CCN(c3cccc(C(F)(F)F)c3)CC2)C1 (stereo unspecified) | – | inactive: -14.1%
Nc1ccc(S(=O)(=O)NCc2ccccn2)cc1 | – | inactive: -7.53%
O=C(COC(=O)c1cc(Cl)nc(Cl)c1)Nc1ccc(Cl)c(S(=O)(=O)N2CCOCC2)c1 | – | inactive: 9.37%
CCOC(=O)N1CCN(C(=O)c2ccc(-n3c(C)ccc3C)cc2)CC1 | – | inactive: -15.6%
O=C1NC2(CCCCC2)C(=O)N1CCS(=O)(=O)Oc1ccc(Br)cc1 | – | inactive: 6.51%
O=C(Nc1ccc(NC(=O)C2CC2)cc1)c1ccco1 | – | inactive: 0.213%
CCOC(=O)C1CCN(C(=O)COc2ccc(S(=O)(=O)N3CCCC3)cc2C)CC1 | – | inactive: -9.1%
CCN(CC)CCNC(=S)Nc1ccc(F)cc1 | – | inactive: 6.21%
O=C(O)c1cccc(S(=O)(=O)Nc2ccc(OCc3ccccc3)cc2)c1 | – | inactive: 0.529%
Cc1cccc[n+]1CC(=O)/C=C1\N(C)c2ccccc2C1(C)C | – | inactive: 15.5%
CCc1nnc(NS(=O)(=O)c2ccc(NC(=O)c3cc(Cl)ccc3Cl)cc2)s1 | – | inactive: 0.579%
Cc1csc(NC(=O)C2CC(=O)N(c3ccc(C)c(C)c3)C2)n1 (stereo unspecified) | – | inactive: 1.17%
CCOC(=O)c1ccc2c(c1)n(CCCS(=O)(=O)[O-])c(/C=C/c1ccc(Cl)cc1)[n+]2CC | – | inactive: 30%

Structure (SMILES) | Potency | growth rescue (activation)
Cc1ccc(-c2nn(-c3ccccc3)cc2C(=O)Nc2ccc(C)c(S(=O)(=O)N3CCOCC3)c2)cc1 | – | inactive: 2%
CCOc1ccc(OCC)c(NC(=O)CN2CCN(c3cccc(C)c3)C(C)C2)c1 (stereo unspecified) | – | inactive: 1.7%
CCN(CC)CCN1C(=O)/C(=C\c2ccc(Cl)c([N+](=O)[O-])c2)SC1=Nc1ccc(OC)cc1 | – | inactive: 0.248%
CCCN1C(=O)/C(=N\OCC(=O)NCC(F)(F)F)c2ccccc21 | – | inactive: 3.86%
COc1ccccc1CN(C)CC(=O)Nc1cccc(S(=O)(=O)N2CCCC2)c1 | – | inactive: -9.73%
Cc1cc(C)nc(SCc2ccc(C(=O)N/N=C3\CCCC(=O)C3)cc2)n1 | – | inactive: 6.87%
Cc1ccc(-c2nn(C)c(=O)c3ccccc23)cc1S(=O)(=O)NCCN(C)C | – | inactive: -5.65%
O=C(Cc1c(Cl)cccc1Cl)OCC(=O)N1CCN(C(=O)c2ccco2)CC1 | – | inactive: 1.83%
O=C(CN1C(=O)C(=O)N(C2CCCC2)C1=O)NCCc1ccc(F)cc1 | – | inactive: 4.07%
N#Cc1cc([N+](=O)[O-])cnc1N(CCO)CCO | – | inactive: 0.711%
Cc1ccc([N+](=O)[O-])cc1NC(=O)CN1CCC(C)CC1 | – | inactive: 14.8%
O=C(CC1CCCCC1)NCc1ccccc1 | – | inactive: 4.77%
CCCOc1ccc(N2C(=O)C3ON(c4ccccc4)C(c4ccc(O)c(OC)c4)C3C2=O)cc1 (stereo unspecified) | – | inactive: 4.3%
S=c1[nH]nc(-c2c[nH]c3ccccc23)o1 | – | inactive: 4.65%
Cc1nc(C)c(-c2csc(Nc3ccc(F)cc3)n2)s1 | – | inactive: 18.1%
COc1ccc2[nH]c(=O)c(CN(Cc3cccnc3)S(=O)(=O)c3ccccc3F)cc2c1 | – | inactive: 0.865%
Cc1ccccc1NC(=O)CN1C(=O)CSc2ccccc21 | – | inactive: 5.3%
O=C(CSc1nc(-c2ccco2)cc(C(F)(F)F)n1)N1CCc2ccccc2C1 | – | inactive: -3.53%
Cc1ccc(S(=O)(=O)NCCN2CCOCC2)c(C)c1C | – | inactive: 8.55%
CCS(=O)(=O)NC(=O)C1(C)CCN1C(=O)C1(c2ccc(Cl)cc2)CC1 (stereo unspecified) | – | inactive: -0.585%
CN(C)C(CNC1CC(C)(C)NC(C)(C)C1)c1cccc(F)c1 (stereo unspecified) | – | inactive: -8.62%
O=C1c2cccc3c(N4CCCCC4)ccc(c23)C(=O)N1c1ccc(O)cc1 | – | inactive: 19.9%

Structure (SMILES) | Potency | growth rescue (activation)
O=C(COC(=O)c1cc(-c2cccc3ccccc23)nc2ccccc12)NC1CCS(=O)(=O)C1 (stereo unspecified) | – | inactive: -1.16%
CCCSc1ncc(Cl)c(C(=O)Nc2ccc(S(=O)(=O)Nc3ncccn3)cc2)n1 | – | inactive: 9.96%
COc1ccccc1N1CCN(C(=O)c2sc3ncnc(N4CCN(c5ccccn5)CC4)c3c2C)CC1 | – | inactive: 25%
CCN1C(=O)C(=O)N(Cc2ccc(OC)c(F)c2)C1=O | – | inactive: -12.7%
CCCCN(C(=O)CSc1nc(CCC)cc(=O)[nH]1)c1c(N)n(Cc2ccccc2)c(=O)[nH]c1=O | – | inactive: -24.4%
COc1ccccc1-c1cnc(C(O)c2c(C)cc(C)cc2C)[nH]1 (stereo unspecified) | – | inactive: 7.42%
Cc1cc(NS(=O)(=O)c2ccc(NC(=O)/C=C/c3ccccc3)cc2)nc(C)n1 | – | inactive: -7.53%
Cn1c(C(=O)O)c(CC(=O)Nc2ccc3c(c2)OCCO3)c2ccccc21 | – | inactive: 16.8%
O=C(Nc1ccc(NC(=O)c2ccco2)nc1)c1cccc(F)c1 | – | inactive: 2.75%
COc1ccc(/C=N/NC(=O)c2cc(-c3cccn3C)n[nH]2)cc1OC | – | inactive: -3.25%
CC(C)[C@H](NS(=O)(=O)c1ccccc1)C(=O)OCC(=O)N1N=C(c2ccc(Cl)cc2)CC1c1ccco1 (stereo partly specified) | – | inactive: 14.8%
CCN(C(=S)Nc1cccnc1)c1cccc2ccccc12 | – | inactive: 10.2%
COc1ccc(C(=O)Nc2ccccc2C(=O)N2CCOCC2)cc1Br | – | inactive: 5.03%
COc1cc(C(=O)NC(=S)N2CCN(C)CC2)cc(OC)c1OC | – | inactive: 10.5%
CCOc1ccc(-n2ccc(=O)c(C(=O)O)n2)cc1 | – | inactive: -5.98%
COc1ccc(C)cc1NC(=O)Nc1cccc(C(=O)O)c1 | – | inactive: -3.05%
COc1ccccc1NC(=O)c1ccc(NC(=O)CNC(=O)c2ccc(OC)c(OC)c2)cc1 | – | inactive: 20.5%
CC1(C)Cc2c(cnn2-c2ccc(F)cc2)C(NC(=O)c2ccc(=O)oc2)C1 (stereo unspecified) | – | inactive: 25.8%
CCNC(=O)C1CCCN(C(=O)c2cc(C)oc2C)CC1 (stereo unspecified) | – | inactive: 3.68%
Cc1cccc(N2CCN(C(=O)CCCn3c(=O)[nH]c4ccsc4c3=O)CC2C)c1 (stereo unspecified) | – | inactive: 9.27%
O=C(c1ccccc1NS(=O)(=O)c1ccc(F)cc1F)N1CCCCC1 | – | inactive: 9.37%
NC(=S)c1cc2cc(Br)ccc2oc1=O | – | inactive: 0.691%

Structure (SMILES) | Potency | growth rescue (activation)
COc1ccc(OC)c(NC(=O)/C=C/c2ccc(S(=O)(=O)N3CCOCC3)cc2)c1 | – | inactive: 13.1%
Cc1cc(C(=O)CSc2nnc(-c3ccc4c(c3)OCO4)o2)c(C)n1-c1ccc(F)cc1 | – | inactive: 2.75%
CCc1cc2ccc(OC)cc2nc1SCC(=O)NNC(=O)c1ccco1 | – | inactive: 13.6%
CC1CC(C)CN(C(=O)CN2C(=O)NC3(CCCCCC3)C2=O)C1 (stereo unspecified) | – | inactive: -5.11%
COC(=O)CCCCNC(=O)Nc1ccccc1 | – | inactive: -13.5%
Cc1ccc(NC(=O)CN2C(=O)NC(C)(CC(C)C)C2=O)c(Br)c1 (stereo unspecified) | – | inactive: 1.56%
COC(=O)/C(=C/c1ccco1)NC(=O)c1ccc(Br)o1 | – | inactive: -3.1%
Cn1c(=O)[nH]c(=O)c2c1nc(N1CCCCCC1)n2Cc1cccc2ccccc12 | – | inactive: 15.7%
Cc1cccc(NC(=O)COC(=O)c2ccccn2)c1 | – | inactive: 7.23%
CC(C)CC(NC(=O)c1cccs1)c1nnc(SCc2ccc(Cl)c(Cl)c2)n1C (stereo unspecified) | – | inactive: 10.2%
Cc1ccc(SCCOCCN2CC(C)OC(C)C2)cc1 (stereo unspecified) | – | inactive: -9.86%
Cc1cc(Nc2cccc(Cl)c2)nc(-c2ccccc2O)n1 | – | inactive: 13.3%
CCc1ccc(C(C(=O)NC2CCCCC2)N(C(=O)c2csnn2)C2CC2)cc1 (stereo unspecified) | – | inactive: -2.56%
CCc1nc2c(OCc3ccc(OC)cc3)cccn2c1N(C)C(=O)c1ccc(OC)cc1 | – | inactive: 2.37%
CC1(C)Cc2c(sc3[nH]c(=S)[nH]c(=O)c23)CO1 | – | inactive: 5.27%
CC(=O)Oc1ccc(/C=C2/C(=O)N(c3ccccc3)N=C2C)cc1 | – | inactive: -3.85%
COc1ccc(-c2nnc(C(C)Nc3cccc(C(=O)NC4CC4)c3)o2)cc1 (stereo unspecified) | – | inactive: 23.6%
COC(=O)c1ccc(Cl)c(NC(=O)c2cccc([N+](=O)[O-])c2C)c1 | – | inactive: 6.17%
